This test concerns murine 3T3 fibroblasts. The test can be described thus: primary screen, percent viability or growth; higher = less effect of the substance. Here is the method: Similarly, for measuring the cytotoxicity concentration (CC50) for 3T3 fibroblast cells, cultures were incubated with drugs for 72 hours and developed using Alamar Blue (Alamar Biosciences Inc, Sacramento, CA) as previously described.

The list shows a part of the results, in another mix than the full data.

As for `CN1CCN(CCCN2c3ccccc3Sc3ccc(Cl)cc32)CC1.O=S(=O)(O)CCS(=O)(=O)O`, the “Mammalian (3T3) cell % growth at 10 uM” value is -1%.

Values taken from publication PMC4102417.
